{
  "source": "PubChem BioAssay AID2147",
  "about": "(National Center for Advancing Translational Sciences (NCATS), 2009)",
  "note": "In all, about 230,000 compounds went through this assay and about 3,600 (1.6%) were called active. The inconclusive results got no clear call from the source; some entries with a clear call stand among them for comparison. Calls follow the shape of the dose curve; as a rule, active = well fitted inhibition curve with a large enough effect (not every such curve was filed as active); inconclusive = small, poorly fitted or top-dose-only effect, or another doubt; inactive = no such curve, though single readings can be large or run the other way. A potency beside an inconclusive call is a rough fit, not a confirmed value. Also: nearly all actives have a fitted effect of over 50% in size. Potency is read from the fitted curve at half-maximal effect; tags tell the direction and shape of the fitted curve.",
  "data": [
    {"molecular_target": "Lysine-specific demethylase 4E (Homo sapiens) (UniProt B2RXH2)", "sequence (B2RXH2 whole entry, looked up, the tested form may be a part)": "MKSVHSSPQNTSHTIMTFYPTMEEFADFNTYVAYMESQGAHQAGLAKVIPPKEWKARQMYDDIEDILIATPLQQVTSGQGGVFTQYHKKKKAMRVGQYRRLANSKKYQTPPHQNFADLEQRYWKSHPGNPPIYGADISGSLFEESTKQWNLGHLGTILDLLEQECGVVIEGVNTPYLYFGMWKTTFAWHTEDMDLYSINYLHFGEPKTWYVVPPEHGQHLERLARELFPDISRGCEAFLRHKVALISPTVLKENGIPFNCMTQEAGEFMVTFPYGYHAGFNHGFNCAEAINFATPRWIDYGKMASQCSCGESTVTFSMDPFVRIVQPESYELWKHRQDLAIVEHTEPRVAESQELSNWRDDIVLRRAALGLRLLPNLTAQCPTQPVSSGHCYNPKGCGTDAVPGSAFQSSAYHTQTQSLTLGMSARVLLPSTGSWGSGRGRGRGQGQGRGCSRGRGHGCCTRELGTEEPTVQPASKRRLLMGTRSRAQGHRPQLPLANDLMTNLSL", "test": "qHTS Assay for Inhibitors of Human Jumonji Domain Containing 2E (JMJD2E)", "conditions": "JMJD2E catalytic domain, FDH-coupled NADH fluorescence (FDH is formaldehyde dehydrogenase); series mostly up to 57.1 µM", "values": [
      {"smiles": "O=C(CSc1cccc2cccnc12)NCc1ccco1", "Potency": "inconclusive: 31.6 µM [inhibitor, partial curve]"},
      {"smiles": "COc1ccc2c(c1)C(=O)[C@H](OC(=O)N[C@H]1CCCc3ccccc31)[C@@H](c1ccc(OC)c(Br)c1)O2", "Potency": "inconclusive: 25.1 µM [inhibitor, single point]"},
      {"smiles": "COC(=O)c1c(NC(=O)CN2CCN(C(=O)c3ccco3)CC2)c2c(C)cccc2n1C", "Potency": "inconclusive: 25.1 µM [inhibitor, single point]"},
      {"smiles": "O=C(Nc1ccc(O)c(-c2nc3ccccc3o2)c1)C1(c2ccc(Br)cc2)CCCC1", "Potency": "inconclusive: 4.47 µM [inhibitor, single point]"},
      {"smiles": "CC(=O)c1ccc(Oc2nc3c(c(=O)n(C)c(=O)n3C)n2C)cc1", "Potency": "inactive"},
      {"smiles": "CCCN(Cc1ccccc1)C(=O)Nc1ccc2c(c1)nnn2C", "Potency": "inconclusive: 28.2 µM [inhibitor, partial curve]"},
      {"smiles": "COC(=O)c1sccc1NC(=O)c1csc2c1CCCC2", "Potency": "inconclusive: 39.8 µM [inhibitor, single point]"},
      {"smiles": "CC(C)C1COc2cc3oc(=O)ccc3cc2O1", "note": "(centres undefined)", "Potency": "inconclusive: 31.6 µM [inhibitor, partial curve]"},
      {"smiles": "COc1ccccc1N1C(=O)C(Cl)=C(Nc2ccccc2O)C1=O", "Potency": "inconclusive: 31.6 µM [inhibitor, single point]"},
      {"smiles": "COc1ccc(N=C2NC(=O)CS2)c([N+](=O)[O-])c1", "Potency": "inconclusive: 8.91 µM [inhibitor, single point]"},
      {"smiles": "O=C(Oc1ccccc1)c1cc2ccccc2oc1=O", "Potency": "inconclusive: 28.2 µM [inhibitor, partial curve]"},
      {"smiles": "COc1ccc(C2SCCN2C(=S)Nc2ccc(F)cc2)cc1", "note": "(centres undefined)", "Potency": "inconclusive: 39.8 µM [inhibitor, single point]"},
      {"smiles": "CC(C)c1ccc(NC(=S)NN(c2ccccc2)c2ccccc2)cc1", "Potency": "inactive"},
      {"smiles": "Cc1ccc(C(=O)O)cc1S(=O)(=O)N1CCSCC1", "Potency": "inactive"},
      {"smiles": "Cc1nc2ccccc2nc1OCc1cccc(Cl)c1", "Potency": "inconclusive: 35.5 µM [inhibitor, single point]"},
      {"smiles": "Cc1ccc2nc(C)c(C(=O)N/N=C/c3ccc(N4CCOCC4)cc3)cc2c1", "Potency": "inconclusive: 39.8 µM [inhibitor, single point]"},
      {"smiles": "COc1cccc(N2CCN(S(=O)(=O)c3ccc4nc(-c5ccccc5)[nH]c4c3)CC2)c1", "Potency": "inconclusive: 39.8 µM [inhibitor, single point]"},
      {"smiles": "C=CCNC(=O)c1ccc(C2SCC(=O)N2Cc2ccco2)cc1", "note": "(centres undefined)", "Potency": "inconclusive: 35.5 µM [inhibitor, single point]"},
      {"smiles": "NC(=O)COC(=O)/C=C/c1ccc2ccccc2n1", "Potency": "inconclusive: 25.1 µM [inhibitor, single point]"},
      {"smiles": "COC(=O)c1ccc(NC(=O)Nc2ccc(F)cc2)cc1", "Potency": "inactive"},
      {"smiles": "CCn1cc(C(=O)NCCc2ccccc2)c(=O)c2cc(F)c(N3CCN(C)CC3)cc21", "Potency": "inconclusive: 20 µM [inhibitor, partial curve]"},
      {"smiles": "CCOC(=O)CSc1nc(C)c2cccc(C)c2n1", "Potency": "inconclusive: 39.8 µM [inhibitor, single point]"},
      {"smiles": "Cc1ccc(-c2nc3cc(C)ccc3o2)cc1", "Potency": "inconclusive: 35.5 µM [inhibitor, single point]"},
      {"smiles": "Nc1cc2ccncc2c2ccccc12", "Potency": "inconclusive: 28.2 µM [inhibitor, partial curve]"},
      {"smiles": "CC(=O)C1(C)OC(N)=C(C#N)C(c2ccccc2)C1(C#N)C#N", "note": "(centres undefined)", "Potency": "inconclusive: 39.8 µM [inhibitor, single point]"},
      {"smiles": "CCC(Sc1nnnn1C)C(=O)Nc1ccc(C(C)=O)cc1", "note": "(centres undefined)", "Potency": "inactive"},
      {"smiles": "Fc1ccccc1N1CCN(C(c2ccncc2)c2nnnn2C2CCCC2)CC1", "note": "(centres undefined)", "Potency": "inactive"},
      {"smiles": "CCC1CCCCN1CCNC(=O)CCS(=O)(=O)c1ccc(Br)cc1", "note": "(centres undefined)", "Potency": "inactive"},
      {"smiles": "CCOC(=O)COc1c(OC)cc(Cl)cc1C1Nc2ccccc2C(=O)N1c1ccccc1", "note": "(centres undefined)", "Potency": "inconclusive: 28.2 µM [inhibitor, partial curve]"},
      {"smiles": "CCOC(=O)c1sc2nc(C3CC3)cc(-c3ccc(F)cc3)c2c1N", "Potency": "inconclusive: 3.55 µM [inhibitor, partial curve]"},
      {"smiles": "O=C(CSC1=N/C(=C/c2ccco2)C(=O)N1c1ccc(OC(F)F)cc1)NC1CCS(=O)(=O)C1", "note": "(centres undefined)", "Potency": "inactive"},
      {"smiles": "COc1ccc(-n2ncc3c(NCC(C)C)ncnc32)cc1", "Potency": "inconclusive: 25.1 µM [inhibitor, partial curve]"},
      {"smiles": "O=c1oc(Nc2cccc(F)c2)nc2ccccc12", "Potency": "inconclusive: 39.8 µM [inhibitor, single point]"},
      {"smiles": "Cc1cccc2cc(C(c3nnnn3C3CCCC3)N3CCOCC3)c(=O)[nH]c12", "note": "(centres undefined)", "Potency": "inconclusive: 22.4 µM [inhibitor, partial curve]"},
      {"smiles": "Cc1cccc(-n2c3nc(=O)[nH]c(=O)c-3cc3c(C)nn(-c4ccccc4)c32)c1C", "Potency": "inconclusive: 8.91 µM [inhibitor, partial curve]"},
      {"smiles": "CC(c1ccccc1)C1C(C#N)=C(N)SC(N)=C1C#N", "note": "(centres undefined)", "Potency": "inconclusive: 39.8 µM [inhibitor, single point]"},
      {"smiles": "CC(C)(C)c1ccc(OCC(=O)Nc2ccc3c4c(cccc24)C(=O)NC3=O)cc1", "Potency": "inconclusive: 25.1 µM [inhibitor, partial curve]"},
      {"smiles": "CSc1sc(-c2ccnc(=S)[nH]2)c(-c2ccccc2)c1C#N", "Potency": "inconclusive: 0.0501 µM [inhibitor, full curve, poor fit]"},
      {"smiles": "CC(=O)OCC1(C)CN(c2ccccc2)N(C(C)=O)C1=O", "note": "(centres undefined)", "Potency": "inactive"},
      {"smiles": "COc1cccc(CN2CCNC(=O)C2CC(=O)NCCn2ccc3ccccc32)c1OC", "note": "(centres undefined)", "Potency": "inconclusive: 31.6 µM [inhibitor, single point]"},
      {"smiles": "Cc1ccc(OCC(=O)N2CC3(C)CC2CC(C)(C)C3)cc1", "note": "(centres undefined)", "Potency": "inactive"},
      {"smiles": "COc1ccc(O)c(-c2c(-c3ccc(Cl)cc3)n[nH]c2C)c1", "Potency": "inactive"},
      {"smiles": "COc1ccc(/C=C2\\SC(=O)N(CCNC(=O)Cc3coc4cc(OC)ccc34)C2=O)cc1", "Potency": "inconclusive: 2.82 µM [inhibitor, partial curve]"},
      {"smiles": "COc1ccc(N2C(=O)c3cccc4cccc(c34)C2=O)nn1", "Potency": "inconclusive: 31.6 µM [inhibitor, partial curve]"},
      {"smiles": "c1ccc(Cn2c(-c3ccco3)nc3nc4ccccc4nc32)cc1", "Potency": "inconclusive: 28.2 µM [inhibitor, partial curve]"},
      {"smiles": "COC(=O)CCC(=O)Nc1sc(C)c(C)c1C(N)=O", "Potency": "inactive"},
      {"smiles": "O=C1CCCC2=C1C(c1ccncc1)n1c(nc3ccccc31)N2", "note": "(centres undefined)", "Potency": "inconclusive: 8.91 µM [inhibitor, partial curve]"},
      {"smiles": "Cc1cccc(N2CCN(C(=O)/C=C/c3ccco3)CC2)c1C", "Potency": "inconclusive: 25.1 µM [inhibitor, single point]"},
      {"smiles": "CN1C(C(=O)NCC2CC2)CC2Cn3c(nc4cc5ccccc5cc43)C21", "note": "(centres undefined)", "Potency": "inconclusive: 28.2 µM [inhibitor, single point]"},
      {"smiles": "CCOC(=O)c1cc2c(=O)n3cccc(C)c3nc2n(CC(C)C)c1=NC(=O)c1ccco1", "Potency": "inconclusive: 7.94 µM [inhibitor, full curve]"},
      {"smiles": "CCc1nc(NCc2ccccc2)c(C#N)c2c1CCCC2", "Potency": "inconclusive: 31.6 µM [inhibitor, partial curve]"},
      {"smiles": "CCn1cc(/C=N\\NC(=O)c2ccc(F)cc2)cn1", "Potency": "inactive"},
      {"smiles": "CCOC(=O)c1ccc(NC(=O)c2nccnc2C(=O)O)cc1", "Potency": "inconclusive: 35.5 µM [inhibitor, single point]"},
      {"smiles": "COc1ccccc1NC(=O)N1CCN(CCc2ccccc2)CC1", "Potency": "inactive"},
      {"smiles": "CN(C)CCN=Cc1c(O)n(Cc2ccccc2)c(=O)c2ccccc12", "Potency": "inconclusive: 31.6 µM [inhibitor, partial curve]"},
      {"smiles": "CC(O)c1nc2ccccc2n1CCCOc1ccccc1", "note": "(centres undefined)", "Potency": "inactive"},
      {"smiles": "Cc1cc(/C=N/NC(=O)c2cccc(N(C)C)c2)c(C)n1-c1cc(C(=O)O)cc(C(=O)O)c1", "Potency": "active: 25.1 µM"},
      {"smiles": "CCOC1=NC(C(=O)O)c2ccccc2/C(=C(/C)Cl)N1", "note": "(centres undefined)", "Potency": "inactive"},
      {"smiles": "COc1ccc2cc(C(=O)C3CCCN(Cc4cnc(N5CCOCC5)s4)C3)ccc2c1", "note": "(centres undefined)", "Potency": "inconclusive: 35.5 µM [inhibitor, partial curve]"},
      {"smiles": "CCN1CCN(CCCNC(=O)c2cc3cc4ccc(OC)cc4nc3o2)CC1", "Potency": "inconclusive: 28.2 µM [inhibitor, partial curve]"},
      {"smiles": "Cc1cc(-c2ccccc2)c2c(n1)sc1c(O)cc(=O)[nH]c12", "Potency": "inconclusive: 31.6 µM [inhibitor, single point]"},
      {"smiles": "O=C(Cc1ccc(S(=O)(=O)N2CCCC2)s1)Nc1nc2c(s1)CCCC2", "Potency": "inconclusive: 28.2 µM [inhibitor, single point]"},
      {"smiles": "COc1ccccc1/C=C/C=N/n1c(C)nnc1C", "Potency": "inconclusive: 31.6 µM [inhibitor, partial curve]"},
      {"smiles": "O=C(N/N=C/c1ccc2ncccc2c1)c1ccco1", "Potency": "inactive"},
      {"smiles": "CCN(CC)S(=O)(=O)c1ccc(NS(=O)(=O)c2ccc(OC)c([N+](=O)[O-])c2)cc1", "Potency": "inactive"},
      {"smiles": "NC(=O)[C@@H]1CCCNc2c(F)cc([N+](=O)[O-])cc2C(=O)N[C@@H](CCC(=O)O)C(=O)N[C@@H](CO)C(=O)N1", "Potency": "inconclusive: 39.8 µM [inhibitor, single point]"},
      {"smiles": "COc1ccc(NC(=O)CN(C)CC(=O)Nc2ccc(Cl)cc2F)cc1", "Potency": "inactive"},
      {"smiles": "CCOC(=O)c1nn(-c2ccc(F)cc2)c2nc(-c3ccccc3)c(C#N)c(=O)n12", "Potency": "inconclusive: 28.2 µM [inhibitor, partial curve]"},
      {"smiles": "CCC(=O)N(Cc1cc2cc(OC)ccc2[nH]c1=O)c1ccc(C)cc1C", "Potency": "inconclusive: 28.2 µM [inhibitor, partial curve]"}
    ]}
  ]
}
